Measured values published in paper PMC5681660, “Reduced hepatitis B and D viral entry using clinically applied drugs as novel inhibitors of the bile acid transporter NTCP” (Scientific Reports, 2017).
Counter-ions that a name gives are not always drawn. Like-named read-outs stand apart in the source and are kept apart here. Non-standard residues stand in square brackets, D forms with d. Residues, ends and D or L forms follow the SMILES beside them. *: point of attachment. Sta = CC(C)C[C@H](N)[C@@H](O)CC(=O)O; Isovaleryl = CC(C)CC(=O)*

Assays:
human NTCP [1] = molecular target: T1, human NTCP (Homo sapiens, UniProt Q14973); assay: Screening taurocholate uptake assay (96-well, [14C]taurocholate, 10 µM drug); conditions: for remaining activity at 10 µM: 10 min, read-out: %NTCP activity
T1 sequence (Q14973 1-349): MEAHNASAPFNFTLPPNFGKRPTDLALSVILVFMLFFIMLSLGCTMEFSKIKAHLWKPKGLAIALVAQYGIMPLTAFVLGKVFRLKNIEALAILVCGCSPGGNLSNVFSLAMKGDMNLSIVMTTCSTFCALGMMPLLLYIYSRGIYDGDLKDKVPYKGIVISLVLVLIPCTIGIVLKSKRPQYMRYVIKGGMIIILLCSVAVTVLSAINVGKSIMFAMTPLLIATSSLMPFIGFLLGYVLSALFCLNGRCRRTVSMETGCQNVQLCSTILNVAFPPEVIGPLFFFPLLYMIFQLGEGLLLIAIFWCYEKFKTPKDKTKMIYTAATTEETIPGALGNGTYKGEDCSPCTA

human NTCP [2] = molecular target: T1, human NTCP; assay: Screening fluorescent competitive Myrcludex B-FITC binding assay (96-well, 10 µM drug)
[3] = screen, 10 µM drug, Myrcludex B-FITC binding
[4] = 0.5 h, read-out: %NTCP binding, Prestwick library screen, 10 µM drug, Myrcludex B-FITC binding

Row | SMILES | remaining activity at 10 µM (human NTCP [1]) [%] | remaining activity at 10 µM (human NTCP [2]; 0.5 h, read-out: %NTCP binding) [%] | also measured
1 | CC1(C)S[C@@H]2[C@H](NC(=O)Cc3ccccc3)C(=O)N2[C@H]1C(=O)O.CC1(C)S[C@@H]2[C@H](NC(=O)Cc3ccccc3)C(=O)N2[C@H]1C(=O)O.c1ccc(CNCCNCc2ccccc2)cc1 [Benzathine benzylpenicillin] | – | – | %NTCP activity (human NTCP [1]; Prestwick library screen, [14C]taurocholate uptake, 10 µM drug): 92.3561%; %NTCP binding (human NTCP [2]; Prestwick library screen, Myrcludex B-FITC binding, 10 µM drug): 89.656%
2 | c1ccc2[nH]c(-c3cscn3)nc2c1 [Tiabendazole] | 61.9 | 81.2 | –
3 | Cc1cccc(Nc2ccncc2S(=O)(=O)NC(=O)NC(C)C)c1 [Torsemide] | 47 | 84.6 | –
4 | CC1COc2c(N3CCN(C)CC3)c(F)cc3c(=O)c(C(=O)O)cn1c23 (stereo not drawn) [Ofloxacin] | 130 | 71.4 | –
5 | CN(C)[C@@H]1C(O)=C(C(N)=O)C(=O)[C@@]2(O)C(O)=C3C(=O)c4c(O)cccc4[C@@](C)(O)[C@H]3[C@H](O)[C@@H]12 [Oxytetracycline dihydrate] | 60.1 | 75.4 | –
6 | CC1(C)O[C@@H]2C[C@H]3[C@@H]4C[C@H](F)C5=CC(=O)C=C[C@]5(C)[C@H]4[C@@H](O)C[C@]3(C)[C@]2(C(=O)CO)O1 [Flunisolide] | 102 | 68.8 | –
7 | Cc1ccccc1OCC(O)CO (stereo not drawn) [Mephenesin] | 107 | 79 | –
8 | C[C@]12CCC(=O)C=C1CC[C@@H]1[C@@H]2C(=O)C[C@@]2(C)[C@H]1CC[C@]2(O)C(=O)CO [Cortisone] | – | – | %NTCP activity (human NTCP [1]; screen, 10 µM drug, [14C]taurocholate uptake): 71.1242%; %NTCP binding (human NTCP [2]; [3]): 87.1881%
9 | Cc1ccc(N(CC2=NCCN2)c2cccc(O)c2)cc1 [Phentolamine hydrochloride] | 113 | 62.3 | –
10 | CC(C)CC(=O)N[C@H](C(=O)N[C@H](C(=O)N[C@@H](CC(C)C)[C@@H](O)CC(=O)N[C@@H](C)C(=O)N[C@@H](CC(C)C)[C@@H](O)CC(=O)O)C(C)C)C(C)C [Pepstatin A] (Isovaleryl-VV[Sta]A[Sta]-OH) | 63.6 | 67.2 | –
11 | C[C@H]1NC(=O)NC1=O [Methylhydantoin-5-(D)] | – | – | %NTCP activity (human NTCP [1]): 91.3725%; %NTCP binding (human NTCP [2]; [3]): 81.2402%
12 | Cn1cc[nH]c1=S [Methimazole] | 98.3 | 107 | –
13 | CC(COc1ccccc1)NC(C)C(O)c1ccc(O)cc1 (stereo not drawn) [Isoxsuprine hydrochloride] | 103 | 110 | –
14 | C[C@@](Cc1ccc(O)c(O)c1)(NN)C(=O)O [Carbidopa] | 130 | 80.1 | –
15 | O=C(NC(Cc1cc(=O)[nH]c2ccccc12)C(=O)O)c1ccc(Cl)cc1 (stereo not drawn) [Rebamipide] | 113 | 89.7 | –
16 | O=C(Cn1ccnc1[N+](=O)[O-])NCCO [Etanidazole] | 118 | 71.4 | –
17 | CN(c1nccc(=O)[nH]1)C1CCN(c2nc3ccccc3n2Cc2ccc(F)cc2)CC1 [Mizolastine] | 118 | 85 | –
18 | Cc1cccc(C)c1N=C1NCCCS1 [Xylazine] | 114 | 86.6 | –
19 | Cc1cc(NC(=O)C2=C(O)c3ccccc3S(=O)(=O)N2C)no1 [Isoxicam] | 157 | 113 | –
20 | c1ccc(CC2=NCCN2)cc1 [Tolazoline hydrochloride] | 125 | 106 | –

Row | SMILES | remaining activity at 10 µM (human NTCP [1]) [%] | remaining activity at 10 µM (human NTCP [2]; 0.5 h, read-out: %NTCP binding) [%] | also measured
21 | CN1C2CCCC1CC(NC(=O)c1nn(C)c3ccccc13)C2 (stereo not drawn) [Granisetron] | 131 | 87.5 | –
22 | CN(C)[C@@H]1C(O)=C(C(N)=O)C(=O)[C@@]2(O)C(O)=C3C(=O)c4c(O)cccc4[C@@](C)(O)[C@H]3C[C@@H]12 [Tetracycline hydrochloride] | 73 | 81.8 | –
23 | CC[C@H]1OC(=O)[C@H](C)[C@@H](O[C@H]2C[C@@](C)(OC)[C@@H](O)[C@H](C)O2)[C@H](C)[C@@H](O[C@@H]2O[C@H](C)C[C@H](N(C)C)[C@H]2O)[C@](C)(OC)C[C@@H](C)C(=O)[C@H](C)[C@@H](O)[C@]1(C)O [Clarithromycin] | 87.5 | 82.1 | –
24 | CCCCC1(COC(=O)CCC(=O)O)C(=O)N(c2ccccc2)N(c2ccccc2)C1=O [Suxibuzone] | 57.5 | 91.7 | –
25 | C[N+]1(C)CCC(=C(c2ccccc2)c2ccccc2)CC1 [Diphemanil methylsulfate] | 161 | 108 | –
26 | Nc1ncnc2c1ncn2[C@@H]1O[C@H](COP(=O)(O)O)[C@@H](O)[C@H]1O.O [Adenosine 5'-monophosphate monohydrate] | – | – | %NTCP activity (human NTCP [1]): 52.9396%; %NTCP binding (human NTCP [2]; Prestwick library screen, 10 µM drug, Myrcludex B-FITC binding): 76.1115%
27 | NC(=O)c1cc[n+](CC2=C(C(=O)O)N3C(=O)[C@@H](NC(=O)[C@@H](c4ccccc4)S(=O)(=O)[O-])[C@H]3SC2)cc1 [Cefsulodin sodium salt] | 91.7 | 115 | –
28 | CCCCC[C@H](O)/C=C/[C@@H]1[C@@H](C/C=C\CCCC(=O)O)[C@@H](O)C[C@H]1O [Dinoprost trometamol] | 42.3 | 55 | –
29 | Oc1c(Cl)cc(Cl)c(Cl)c1Cc1c(O)c(Cl)cc(Cl)c1Cl [Hexachlorophene] | 49.8 | 99.4 | –
30 | CCCSc1ccc2nc(NC(=O)OC)[nH]c2c1 [Albendazole] | 37.4 | 86.6 | –
31 | CO[C@H]1/C=C/O[C@@]2(C)Oc3c(C)c(O)c4c(c3C2=O)C2=NC3(CCN(CC(C)C)CC3)NC2=C(NC(=O)/C(C)=C\C=C\[C@H](C)[C@H](O)[C@@H](C)[C@@H](O)[C@@H](C)[C@H](OC(C)=O)[C@@H]1C)C4=O [Rifabutin] | 107 | 82.4 | –
32 | Cn1c(=O)c2c(ncn2CC(O)CO)n(C)c1=O (stereo not drawn) [Diprophylline] | 148 | 110 | –
33 | CC[C@@H](CO)NC(=O)[C@@H]1C=C2c3cccc4[nH]cc(c34)C[C@H]2N(C)C1 [Methylergometrine maleate] | 82.3 | – | remaining activity at 10 µM (human NTCP [2]; [4]): 64.3%
34 | CN1[C@@H]2CC[C@H]1C[C@@H](OC(=O)c1c[nH]c3ccccc13)C2 [Tropisetron HCl] | 78.5 | 78.4 | –
35 | CCn1cc(C(=O)O)c(=O)c2cc(F)c(N3CCNC(C)C3)c(F)c21 (stereo not drawn) [Lomefloxacin hydrochloride] | 139 | 73.1 | –
36 | Cc1c(NC(=O)c2cccnc2)c(=O)n(-c2ccccc2)n1C [Nifenazone] | 94.6 | 63.3 | –
37 | COCCOC(=O)C1=C(C)NC(C)=C(C(=O)OC/C=C/c2ccccc2)C1c1cccc([N+](=O)[O-])c1 (stereo not drawn) [Cilnidipine] | 126 | 84.9 | –
38 | CO[C@H]1/C=C/O[C@@]2(C)Oc3c(C)c(O)c4c(O)c(c5c(nc6cc(C)ccn65)c4c3C2=O)NC(=O)/C(C)=C\C=C\[C@H](C)[C@H](O)[C@@H](C)[C@@H](O)[C@@H](C)[C@H](OC(C)=O)[C@@H]1C [Rifaximin] | 109 | 86.5 | –
39 | Cc1cc2c(s1)Nc1ccccc1N=C2N1CCN(C)CC1 [Olanzapine] | 82.8 | – | remaining activity at 10 µM (human NTCP [2]; [4]): 101%
